Test results published in paper PMC9911399, “Two distinct binding modes provide the RNA-binding protein RbFox with extraordinary sequence specificity”.
Numbering of substitutions follows the chain as printed; changes in the protein carry UniProt numbers. The list shows a part of the results.

T1: RBFOX1 RRM (Homo sapiens, UniProt Q9NWB1 109-208)
T1 sequence: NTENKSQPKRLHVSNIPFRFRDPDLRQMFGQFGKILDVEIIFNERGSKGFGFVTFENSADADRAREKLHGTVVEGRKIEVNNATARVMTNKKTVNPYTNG

B1: UGUGUGG (DNA:RNA)
RNA: GGGAGACCGGAAUUCAGAUUGUCCUGUGUGGUUAAAUCCCGUCGUAGCCACCA
DNA 1: CAATCTGAATTCCGGTCTCCC
DNA 2: TGGTGGCTACGACGGGATT
B2: UUAGGGC (DNA:RNA)
RNA: B1 RNA with G26U, U27A, U29G, G31C
DNA 1: CAATCTGAATTCCGGTCTCCC
DNA 2: TGGTGGCTACGACGGGATT
B3: GACCGUG (DNA:RNA)
RNA: B1 RNA with U25G, G26A, U27C, G28C, U29G, G30U
DNA 1: CAATCTGAATTCCGGTCTCCC
DNA 2: TGGTGGCTACGACGGGATT
B4: UAAACAU (DNA:RNA)
RNA: B1 RNA with G26A, U27A, G28A, U29C, G30A, G31U
DNA 1: CAATCTGAATTCCGGTCTCCC
DNA 2: TGGTGGCTACGACGGGATT
B5: UGUCCGU (DNA:RNA)
RNA: B1 RNA with G28C, U29C, G31U
DNA 1: CAATCTGAATTCCGGTCTCCC
DNA 2: TGGTGGCTACGACGGGATT
B6: GAGGAGG (DNA:RNA)
RNA: B1 RNA with U25G, G26A, U27G, U29A
DNA 1: CAATCTGAATTCCGGTCTCCC
DNA 2: TGGTGGCTACGACGGGATT
B7: CGUGAAA (DNA:RNA)
RNA: B1 RNA with U25C, U29A, G30A, G31A
DNA 1: CAATCTGAATTCCGGTCTCCC
DNA 2: TGGTGGCTACGACGGGATT
B8: ACCCCAU (DNA:RNA)
RNA: GGGAGACCGGAAUUCAGAUUGUCCACCCCAUUUAAAUCCCGUCGUAGCCACCA
DNA 1: CAATCTGAATTCCGGTCTCCC
DNA 2: TGGTGGCTACGACGGGATT
B9: AGUGGCC (DNA:RNA)
RNA: B1 RNA with U25A, U29G, G30C, G31C
DNA 1: CAATCTGAATTCCGGTCTCCC
DNA 2: TGGTGGCTACGACGGGATT
B10: UAUUACG (DNA:RNA)
RNA: B1 RNA with G26A, G28U, U29A, G30C
DNA 1: CAATCTGAATTCCGGTCTCCC
DNA 2: TGGTGGCTACGACGGGATT
B11: CAAAGUU (DNA:RNA)
RNA: B8 RNA with A25C, C26A, C27A, C28A, C29G, A30U
DNA 1: CAATCTGAATTCCGGTCTCCC
DNA 2: TGGTGGCTACGACGGGATT
B12: CUCGCCA (DNA:RNA)
RNA: B8 RNA with A25C, C26U, C28G, A30C, U31A
DNA 1: CAATCTGAATTCCGGTCTCCC
DNA 2: TGGTGGCTACGACGGGATT
B13: CUAUUAA (DNA:RNA)
RNA: B8 RNA with A25C, C26U, C27A, C28U, C29U, U31A
DNA 1: CAATCTGAATTCCGGTCTCCC
DNA 2: TGGTGGCTACGACGGGATT
B14: CCAGCUU (DNA:RNA)
RNA: B8 RNA with A25C, C27A, C28G, A30U
DNA 1: CAATCTGAATTCCGGTCTCCC
DNA 2: TGGTGGCTACGACGGGATT
B15: CGCAGAA (DNA:RNA)
RNA: B8 RNA with A25C, C26G, C28A, C29G, U31A
DNA 1: CAATCTGAATTCCGGTCTCCC
DNA 2: TGGTGGCTACGACGGGATT
B16: AUUUACU (DNA:RNA)
RNA: B8 RNA with C26U, C27U, C28U, C29A, A30C
DNA 1: CAATCTGAATTCCGGTCTCCC
DNA 2: TGGTGGCTACGACGGGATT
B17: GCUUUCG (DNA:RNA)
RNA: B1 RNA with U25G, G26C, G28U, G30C
DNA 1: CAATCTGAATTCCGGTCTCCC
DNA 2: TGGTGGCTACGACGGGATT
B18: GUUGAUG (DNA:RNA)
RNA: B1 RNA with U25G, G26U, U29A, G30U
DNA 1: CAATCTGAATTCCGGTCTCCC
DNA 2: TGGTGGCTACGACGGGATT
B19: GCGGGGU (DNA:RNA)
RNA: B8 RNA with A25G, C27G, C28G, C29G, A30G
DNA 1: CAATCTGAATTCCGGTCTCCC
DNA 2: TGGTGGCTACGACGGGATT
B20: UACUUCC (DNA:RNA)
RNA: B1 RNA with G26A, U27C, G28U, G30C, G31C
DNA 1: CAATCTGAATTCCGGTCTCCC
DNA 2: TGGTGGCTACGACGGGATT

These binders were tested against T1, RBFOX1 RRM (assay: EMSA; HiTS-Eq, 1 nM pool, 10 min; buffer printed only for the single-RNA assays: 10 mM Tris pH 7.5, 150 mM NaCl, 3.4 mM EDTA, 0.001% NP-40, 30 C). Conditions: tags: His6 N-terminal (pET28a); label: 5' 32P.
Method in brief: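 Relative association constants, normalised to the cognate motif, were derived by comparing read counts of each RNA species with those of the control reaction. The RNA sequenced was the free fraction, separated by 8% native PAGE after a 10 min equilibration in 50 µL of 1 nM 5′-radiolabelled RNA (7 randomized nucleotides) with increasing concentrations of purified wild-type or mutant RbFox RRM.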

Row | Binder | binding signal
1 | B1 | 0.0178 KA relative to UGCAUGU
2 | B2 | 0.0028 KA relative to UGCAUGU
3 | B3 | 0.0127 KA relative to UGCAUGU
4 | B4 | 0.00189 KA relative to UGCAUGU
5 | B5 | 0.0131 KA relative to UGCAUGU
6 | B6 | 0.0185 KA relative to UGCAUGU
7 | B7 | 0.00508 KA relative to UGCAUGU
8 | B8 | 0.000316 KA relative to UGCAUGU
9 | B9 | 0.0147 KA relative to UGCAUGU
10 | B10 | 0.0123 KA relative to UGCAUGU
11 | B11 | 0.00359 KA relative to UGCAUGU
12 | B12 | 0.00557 KA relative to UGCAUGU
13 | B13 | 0.00764 KA relative to UGCAUGU
14 | B14 | 0.0059 KA relative to UGCAUGU
15 | B15 | 0.0087 KA relative to UGCAUGU
16 | B16 | 0.00236 KA relative to UGCAUGU
17 | B17 | 0.0216 KA relative to UGCAUGU
18 | B18 | 0.0196 KA relative to UGCAUGU
19 | B19 | 0.0285 KA relative to UGCAUGU
20 | B20 | 0.00478 KA relative to UGCAUGU
